Some of the results follow.
test system: PF3D7_0420300 AP2 domain 1 (GST-tagged); test: gcPBM binding intensity (ln(normalized median fluorescence intensity)); higher = stronger DNA binding
Method in brief: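 After 1 h on an Agilent 4 × 180k array of primer-extended double-stranded 36-bp intergenic genomic probes and negative controls, bound GST-tagged P. falciparum DNA-binding domains were detected with Alexa488 anti-GST antibody and scanned at 488 nm. The domains had been expressed in E. coli, and binding took place in 1× PBS with 1% milk, 0.2 mg/ml BSA, 0.5% salmon testes DNA and 0.03% Triton X-100. Binding intensity is the highest Masliner-normalised natural-log median intensity across replicate spots of either probe orientation.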

Sequence | gcPBM binding intensity (ln)
TATAAATAAAGCAGTACACACATTTATTTTAGATAC [CACACA_site7566] | 9.61
TTTATACTATAATTATGTACTTATAAAAGGAATAAA [XGTACX_site8027] | 8.97
ATGTAAATACATATATGTACACAAATATATATATAT [XGTACX_site3537] | 9.36
ATAAACACATCTATATGTACATATATATATATATAC [XGTACX_site347] | 9.41
TATATAAATATACATTGTACTCAACATTTTCATTAA [XGTACX_site3690] | 9.21
TGGGTGTAGAACAATTGTACTTTGTAAAAATATAAG [XGTACX_site8464] | 9.1
TTTTTTTTCAATGGTTGTACAAAGTAAAACAACAAA [XGTACX_site1582] | 8.84
TTATATATATTTAAAAAAATAACATAAATAAATAAA [CACACA_negctrl_site347] | 8.96
GTAAATATAAACTCAGCACACAAACATATATATGTC [CACACA_site9326] | 9.67
TTAAATAAAAGGTTTAGTACTTAAAATAAGAAATGA [XGTACX_site6341] | 9.14
TTTTATTTATCTTAATGTACACATTTATATATATAT [XGTACX_site8588] | 9.41
TATAATAATTAAAAGTGTACTAAATTTTTACATATA [XGTACX_site2523] | 9.12
CACTTTTTTTTTTACTGTACATATACAAATTAAAAA [XGTACX_site1565] | 9.14
TTGTAATTTATTCAAACACACAATTTGGACCTTTTT [CACACA_site1063] | 9.19
TATTCATAATTTTAATGTACAAAATGGTTTGTAATA [XGTACX_site8493] | 8.95
AAAGATAAATTAAAAAGTACATATTTATTCAATGTA [XGTACX_site8543] | 9.16
AATATATATATATTATCACACACTCACGTTTGACAA [CACACA_site8130] | 9.46
TATGATATATATAATACACACATATACATAAGATCT [CACACA_site1119] | 9.62
ATTATATCATATATATGTACACATATATAACATGAT [XGTACX_site7] | 9.25
TAAAAAAAACGAACAAGTACACATAAAAAAAAATTA [XGTACX_site5982] | 9.58
ATCCATCTTTTAATTTGTACTTATTCTTTTTTCTTT [XGTACX_site5299] | 9.68
ATATATATATGTAATAGTACATATGATAGTTTGTCA [XGTACX_site1545] | 9.3

Sequence | gcPBM binding intensity (ln)
ATTAGTTTTATATATAGTACATATAATTTTGAAGGT [XGTACX_site7445] | 9.2
AATTTAATATAATGCACACATAAAAAAAAATTCAAA [CACACA_site2062] | 9.22
ATGAAAACCATGACGGGTACTCATTTATTATTTTAT [XGTACX_site6724] | 9.43
ATTTATTTGTTTATTTGTTTATTTGTTTATTTGTTT [CACACA_negctrl_site1386] | 9.82
TTAAGAATCTATACTAGTACATATATGTATACAAGC [XGTACX_site8025] | 9.29
TGTAGAACAAAAAATTGTACATATTTGTAAAAAAAA [XGTACX_site3850] | 9.09
ATTGTGTTAATAAAATGTACATTTTCTCTACTTTAA [XGTACX_site1199] | 9.42
TATATATATATGTGTAGTACAACAAATATGAAAAAT [XGTACX_site4059] | 9.54
ACAATATATAAAATATGTACATAATATATATAATGA [XGTACX_site8731] | 9.33
CCTAATTTTATTAGGGTGCATTTTTAGTTAAATATA | 9.01
ATCCACAAATTAACAAGTACATATATATATATATAT [XGTACX_site1267] | 9.02
TAAGTTATATGTACTACACACGTACACAAAATAAGA [CACACA_site9237] | 9.55
TGATGAAAATTTTTCTGTACAAAAAGTATGAAGGTA [XGTACX_site8901] | 9.06
TTATAATTCTATTATCTGTTCTTTTTATATTTTTTT [CACACA_negctrl_site855] | 9.43
TTCTAAACACATTGACAAATTAATATATTACAGCAA [GTGCAC_negctrl_site121] | 9.18
TTATTTTTCAATGAAAAGGATTATATATATATATAT [CACACA_negctrl_site757] | 8.97
AAAATTTATAGTATGGTGCATAAAAATATATATATA | 9.29
TATAAGAAAAATAACACACACATAAACATAAATACA [CACACA_site5536] | 9.87
AAAAAAAAAAAAAAATGTACATAAAAATGATATAAT [XGTACX_site4096] | 9.41
GTATATATATATAAAAGTACATGTTATGAAAAAAAA [XGTACX_site5410] | 9.41
TATATATAGAAACACACACACATATATATATATATA [CACACA_site773] | 9.74
TTTTTTCTCAAAAAAAAAACCTATGGTTATTAAGAT [XGTACX_negctrl_site534] | 8.7
